This passage reports inhibition results from PubChem BioAssay AID485344 (National Center for Advancing Translational Sciences (NCATS), 2010).

Screen size: about 340,000 compounds; about 6,900 (2%) were called active. Cut-off read from the data, not from the text of the source: active = inhibition above about 30%; inactive = below that, where a call was filed. The entries are a selection whose mix differs from that of the whole data set. Where no call is shown, the source filed none.

Usually inhibition stands for the drop in the measured response relative to a control, in per cent.

The assay concerns the target D(2) dopamine receptor (Homo sapiens) (UniProt P14416). In words: HTS Assay for Allosteric Antagonists of the Human D2 Dopamine Receptor: Primary Screen for Antagonists. Note: 0% is about no effect. The following applies: HEK293 TREx D2 cells, calcium flux, dopamine EC80; at 10 µM; stronger effect = higher value. In a few lines: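 Read-out: kinetic calcium fluorescence (1 cycle/s) in inducible HEK293 T-REx D2 cells after an EC80 dopamine addition that followed 180 s compound preincubation. Loss of the dopamine response indicates antagonism.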
Sequence of UniProt P14416 (P14416 whole entry, looked up): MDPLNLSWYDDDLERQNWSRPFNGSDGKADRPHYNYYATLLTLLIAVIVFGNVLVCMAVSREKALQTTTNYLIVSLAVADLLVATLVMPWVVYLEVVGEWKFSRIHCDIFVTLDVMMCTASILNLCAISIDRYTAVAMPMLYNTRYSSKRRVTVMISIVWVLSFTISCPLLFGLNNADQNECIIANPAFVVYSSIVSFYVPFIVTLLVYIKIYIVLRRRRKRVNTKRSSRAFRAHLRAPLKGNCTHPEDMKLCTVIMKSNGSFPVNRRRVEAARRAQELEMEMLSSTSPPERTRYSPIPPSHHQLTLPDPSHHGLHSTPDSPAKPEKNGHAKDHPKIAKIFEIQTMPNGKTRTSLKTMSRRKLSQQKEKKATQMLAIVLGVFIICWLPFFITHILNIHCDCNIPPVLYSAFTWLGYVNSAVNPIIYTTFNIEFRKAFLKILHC
A general note: A change in cytosolic calcium serves as a functional read-out for many receptors and channels.
Turning to `CC1CCCCN1C(=O)CCS(=O)(=O)c1cc2c(cc1Cl)NC(=O)CO2` (stereo unspecified), the inhibition is -13%.

As to `CN(CC(=O)Nc1cccc(S(=O)(=O)N(C)C)c1)Cc1ccccc1`, the inhibition was active: 32.9%. As for `CCS(=O)(=O)c1nc(S(=O)(=O)c2ccc(C)cc2)c(NC)s1`, the figure is -4.07%. Then `Cc1cccc(C(=O)N2CCc3cc(CNS(=O)(=O)c4ccc(F)c(Cl)c4)ccc32)c1`, with -16.5%.

As to `CC(CC(=O)N1CCN(C(=O)c2ccccc2)CC1)c1ccccc1` (stereo unspecified), the inhibition is active: 38%. Then `O=C(C1CCCO1)N1CCN(C(=S)Nc2ccc(F)cc2)CC1` (stereo unspecified), with active: 41%; and `Cn1nc(C(=O)N2CCN(c3ccc(F)cc3)CC2)c2c1-c1ccccc1SC2`, with 3.51%; and `CC1CCCN(S(=O)(=O)c2cc3c4c(c2)CC(=O)N4CCC3)C1` (stereo unspecified), with -10.8%. For the molecule `COc1ccc(N2CCN(c3ccc4nnc(CCC(=O)Nc5ccc(C)cc5)n4n3)CC2)cc1`, the inhibition is active: 34%. As for `COc1ccc(CCNC(=O)c2cn(C)c3ccc(S(=O)(=O)N(C)C)cc3c2=O)cc1OC`, the figure is -14.7%. Consider `COc1ccc2c(c1)sc1ncc(C(=O)NCc3cccc(C)c3)c(=O)n12`, for which the inhibition worked out at 1.04%. On to `CC(C)c1ccc(NC(=O)Cn2nnc(C(=O)NCc3ccc(Cl)cc3)c2N)cc1`, for which the inhibition was -1.74%. Then `CCN(C(=O)c1cn(CC(C)C)c(=O)c2cc(OC)c(OC)cc12)c1cc(OC)ccc1OC`, with -14%. As for `CCc1ccc(C(=O)c2cn(CC(=O)Nc3cc(F)ccc3F)c3nc(C)ccc3c2=O)cc1`, the figure is -5.69%; as for `CCOC(=O)C1CCC(CN(Cc2ccc(OC)cc2)S(=O)(=O)c2ccc(F)c(C(=O)Nc3c(C)cccc3C)c2)CC1` (stereo unspecified), -13.9%; as for `Cc1ccccc1Nc1c(-c2ccccc2)nc2cccc(C)n12`, 13.6%. Then `Cc1cc(F)ccc1NC(=O)CS(=O)(=O)c1cccc2nsnc12`, with -9.52%; and `CS(=O)(=O)Nc1ccccc1C(=O)OCc1cc(=O)n2nc(C3CCCCC3)sc2n1`, with 5.86%; and `O=C(Cn1cnc2c(nc3n2CCCCC3)c1=O)Nc1ccc(F)c(Cl)c1`, with -4.49%. As for `COc1ccc(CNc2nc(SCc3ccccc3Cl)nc3ccccc23)cc1`, the inhibition came to 24.2%. As for `CSc1ccc(CCNC(=O)c2cc3cc(S(=O)(=O)N4CCCCC4)ccc3n2C)cc1`, the figure is -0.476%; as for `O=C1/C(=C\c2cc(Cl)c(O)c(Cl)c2)SC(=S)N1Cc1ccccc1`, active: 69.4%. Then `CCCOc1ccc(C(=O)Nc2ccc(NC(=O)c3ccccc3)c(C)c2)cc1`, with 1.93%. For `Cc1cccc(CC(=O)NCc2nc3cccnc3n2Cc2ccc(F)cc2)c1`, the inhibition came out at 14.1%. As for `CCc1cc(=O)[nH]c(SCc2nc(-c3ccccc3)no2)n1`, the figure is -8.06%; as for `Cc1nnc2c(N3CCN(c4ccccc4F)CC3)nc3ccc(C(=O)c4ccccc4)cc3n12`, -12.7%. As for `Cc1cccc(C(=O)NC2=NC(c3ccc(Cl)cc3)CC(=O)N2)c1` (stereo unspecified), the inhibition is -6.29%. As for `CCOC(=O)C(=CNc1ccc(OC)cc1[N+](=O)[O-])C(=O)OCC`, the figure is active: 31.3%.

With `COc1ccccc1NC(=O)c1sc2nc3c(cc2c1N)CN(Cc1ccccc1)CC3`, the inhibition was -3.57%. As for `Cc1ccccc1C(=O)NCC(=O)NNC(=O)CCN1CCN(c2ccccc2)CC1`, the figure is active: 72.1%; as for `Cc1cc(C(=O)CSc2nnc(-c3ccc(F)cc3)o2)c(C)n1CC1COc2ccccc2O1` (stereo unspecified), active: 41.2%; as for `COc1ccc(CC(=O)NCCS(=O)(=O)N2CCN(c3ccc(F)cc3)CC2)cc1OC`, 0.89%. Then `COCCn1c(C)cc(O)c(C(c2ccc(F)cc2)N2CCN(c3ccccc3)CC2)c1=O` (stereo unspecified), with 7.91%; and `O=C(CSc1nc(=O)[nH]c2c1CCCC2)NCc1ccc(F)cc1`, with -1.91%. Then `CCc1nc(C)cn1S(=O)(=O)c1ccc(Cl)c(Cl)c1OC`, with 20.8%. For the molecule `N#Cc1ccccc1Cn1cnc2nc3c(cc2c1=O)CCCC3`, the inhibition amounted to 23.6%. With `COc1ccc2c(c1)c1c(c(=O)n(Cc3ccccc3)c(=O)n1CC(=O)NCc1ccccc1)n2C`, the inhibition was -3.57%. Then `O=C(Cn1cc(/C=N/O)c2ccccc21)N1CCOCC1`, with active: 39.2%; and `COc1ccc(CNCc2c(C(=O)O)n(Cc3ccc(F)cc3)c3cc(C)ccc23)cc1OC`, with -22.4%; and `CCC(=O)N1CCc2cc(Br)cc(S(=O)(=O)CCC(=O)Nc3cccc(C)c3C)c21`, with 23.5%. Then `CN(C)CCN(Cc1ccco1)C(=O)c1oc2ccccc2c1NC(=O)c1cccc(F)c1`, with -2.65%; and `CCOCCCNC(=O)c1ccc(-n2c(-c3ccccc3)cc3c2CCCCC3)cc1`, with 12.2%.

As for `COc1ccc(Cn2c(=O)c3ccccc3n3c(-c4cccc(OC)c4OC)nnc23)cc1`, the inhibition amounted to 6.6%. As for `Cc1cccc(NC(=O)C2CCN(c3cnccn3)CC2)c1`, the figure is -6.02%. As for `CC1CCN(S(=O)(=O)c2ccc3c(c2)oc(=O)n3CC(=O)O)CC1`, the figure is -5.37%; as for `COc1ccc(CC(=O)Nc2ccc3nc(N4CCCCC4)cc(C)c3c2)cc1`, -28.6%; as for `CC1CCCN(CCOc2ccc(Br)cc2)C1` (stereo unspecified), active: 62.9%. Take `CCOC(=O)c1c(NC(C)=O)c2c3c(sc2n1Cc1nc(-c2ccccc2Cl)oc1C)CCCC3`: the inhibition is -9.81%. Then `CCOc1ccc(NC(=O)CCc2c(C)nc3cc(-c4ccc(Cl)cc4)nn3c2C)cc1`, with -0.677%. Take `CC(C)CNS(=O)(=O)c1ccc(N2CCCCS2(=O)=O)cc1`: the inhibition was -20.4%. Then `CCCCCn1c(=O)[nH]c2cc(C(=O)NCc3ccccc3)ccc2c1=O`, with 0.529%; and `Cc1ccc(CNC(=O)CS(=O)(=O)Cc2nc(-c3ccccc3C)oc2C)cc1`, with -24.6%; and `CCCOc1ccc(NC(=O)C(=O)NCCCN2CCOCC2)cc1`, with -5.98%. Then `COc1ccc(CNC(=O)Cc2c(C)c3c(cc(C)c4c(C)c(C)oc43)oc2=O)cc1OC`, with 13.2%; and `Cc1cccc(Cn2c(SCc3ccc(C(=O)NC4CCCC4)cc3)nc3ccncc32)c1`, with 7.72%; and `Cc1cccc(-c2noc(CNC(=O)c3ccccc3Br)n2)c1`, with -11.9%.

As to `Cc1ccc(NC(=O)c2sc(-n3nc(C)c(Cc4ccc5c(c4)OCO5)c3C)nc2C)cc1Cl`, the inhibition is -6.12%.

For the molecule `Cc1cc(=O)oc2cc(OCC(=O)Nc3ccc(O)c(C(=O)O)c3)ccc12`, the inhibition amounted to 2.69%. Regarding `Oc1ccc(NCc2ccc(OCc3ccccc3)cc2)cc1`, the inhibition was found to be 5.99%. As for `CCOc1ccc(CC(=O)N2CCc3cc(OC)c(OC)cc3C2COc2ccc3c(C)cc(=O)oc3c2)cc1` (stereo unspecified), the figure is -7.93%. With `Cc1ccc(NC(=O)Cn2c(=O)n(CC(=O)NCCc3ccccc3)c(=O)c3ccccc32)cc1C`, the inhibition was -17.3%. Take `CCCCc1nc(SCC(=O)Nc2ccc(S(N)(=O)=O)cc2)n[nH]1`: the inhibition was found to be 14.4%. Turning to `CCc1cccc(NC(=O)Nc2cn(C)c(=O)c3ccccc23)c1`, the inhibition turned out to be 23.6%.

For the molecule `Cc1ccc(C(=O)COC(=O)c2cc(-c3cccs3)nc3ccccc23)cc1`, the inhibition is 8.68%.

Take `COc1cccc(NC(=O)C2CCN(S(=O)(=O)c3c(C)noc3C)CC2)c1`: the inhibition is -4.06%.

For the molecule `COc1ccc(-c2noc(CCC(=O)Nc3cccc(C)c3C)n2)cc1OC`, the inhibition was -2.57%. Then `Cc1ccc(S(=O)(=O)c2cn(CC(=O)Nc3ccc(F)cc3)c3cc4c(cc3c2=O)OCO4)cc1`, with 19.8%.

In the case of `CC(C)OCCCNC(=O)Cc1ccc(NC(=O)N2CCCCc3ccccc32)cc1`, the inhibition was determined as 18.2%. As for `CCc1ccccc1NC(=O)Cn1c(=O)n(-c2cccc(C)c2)c(=O)c2c1c1cc(OC)ccc1n2C`, the figure is 1.01%. Regarding `N#CC[C@H](Cc1ccccc1)N1CCN(CCc2ccccc2)CCC1=O`, the inhibition was active: 33.6%.

Regarding `CCOC(=O)CC(NC(=O)c1cc2c(=O)n3cccc(C)c3nc2s1)c1ccc(OCC)c(OC)c1` (stereo unspecified), the inhibition worked out at 2.9%.

For `Cc1cc(C)c2nc(N3CCCC(C(=O)NCc4ccccc4F)C3)sc2c1` (stereo unspecified), the inhibition is -6.81%. Then `CCCn1cc(S(=O)(=O)c2ccc(C)c(C)c2)c(=O)c2cc(F)c(N3CCC(C)CC3)cc21`, with 0.731%; and `CCn1c(=O)n(-c2ccc3c(c2)OCO3)c2nc(-c3cccc(OC)c3OC)nc(C(N)=O)c21`, with -14.9%. Then `Cc1ccccc1C(=O)Nc1cc2c(cc1N1CCCCC1)n(C)c(=O)n2C`, with 12.5%. Then `COc1ccc(N2CCN(C(=O)c3ccc4c(c3)N(Cc3cccc(Cl)c3)C(=O)c3ccccc3S4(=O)=O)CC2)cc1`, with -4.61%; and `COc1ccc(C)cc1NC(=O)C(NCC(O)c1ccccc1)c1ccccc1` (stereo unspecified), with active: 33.5%.

Regarding `CCc1ccc(S(=O)(=O)Nc2ccc(N3CCN(C)CC3)cc2)cc1`, the inhibition is active: 75%. Then `O=C(Cn1c(=O)n(-c2ccc(Cl)cc2)c(=O)c2c3c(sc21)CCCCC3)Nc1cccc(Cl)c1`, with 20.4%. Consider `O=C(c1cc2nc(-c3cccs3)cc(C(F)(F)F)n2n1)N1CCCc2ccccc21`, for which the inhibition was active: 31.2%.

Take `O=C(NCc1cccc(Cl)c1)c1cc2c(s1)-c1ccccc1SC2`: the inhibition is 3.05%. As for `COc1ccc(OCCOC(=O)c2ccc(F)c(S(=O)(=O)N3CCOCC3)c2)cc1`, the figure is active: 49.2%. In the case of `COc1cccc(CNS(=O)(=O)c2ccc3c(c2)CC(C)N3C(=O)C2CCC2)c1` (stereo unspecified), the inhibition was found to be 7.99%. In the case of `Cc1ccc2cccc(NC(=O)c3cccc4c(Br)cccc34)c2n1`, the inhibition turned out to be 2.12%. Regarding `COc1ccc(C)cc1NC(=O)C(=O)NCC(c1cccnc1)N1CCN(c2ccccc2F)CC1` (stereo unspecified), the inhibition worked out at 12.8%. With `Cc1ccc(C)c(NC(=O)CCOc2ccccc2)c1`, the inhibition turned out to be 1.87%.

On to `Cc1ccc2nc(-c3ccc(F)cc3)c(NC(C)(C)CC(C)(C)C)n2c1`, for which the inhibition is 5.83%.

In the case of `Cc1c(Cl)cccc1NC(=O)CSc1ccc(-c2ccccn2)nn1`, the inhibition came out at 4.34%. As for `COc1ccc(N2CCN(C(=O)C3Cc4ccccc4N3C(C)=O)CC2)cc1` (stereo unspecified), the figure is -2.95%.

For the molecule `Cc1c(C)c2cc3c(c(C)c2oc1=O)OCN(CCc1ccccc1)C3`, the inhibition amounted to 2.28%. As for `Cc1cc(C)cc(N2CCn3c2nc2c3c(=O)n(C/C=C/c3ccccc3)c(=O)n2C)c1`, the figure is 18.2%; as for `CCOc1cc(CNC(=O)C2CCN(c3nc4ccccc4[nH]3)CC2)cc(OCC)c1OCC`, 4.02%; as for `Cc1ccc(C(=O)N/N=C\c2cc3c(cc2Br)OCO3)s1`, active: 65.8%. As for `COc1cc(OC)c(NC(=O)N2CCC(CN3CCOCC3)CC2)cc1Cl`, the figure is -24.7%; as for `Cc1nc(-c2ccc(F)cc2)c(CC(=O)N2CCN(S(=O)(=O)c3cccc(Cl)c3)CC2)s1`, active: 34.1%. As for `CCc1cccc(NC(=O)CCc2c(C)nc3c(-c4ccccc4)c(C)nn3c2C)c1`, the figure is 9.57%.
